{"source": "paper PMC4336329", "about": "(PLoS ONE, 2015)", "note": "The whole screen tested about 310,000 compounds, of which about 2,200 (0.71%) showed an effect of 50% or more. Effects have a minus sign here. Some of the results follow.", "data": [{"target": "human ether-à-go-go-related gene (hERG) potassium channel (human, UniProt Q12809)", "sequence (Q12809 whole entry, looked up)": "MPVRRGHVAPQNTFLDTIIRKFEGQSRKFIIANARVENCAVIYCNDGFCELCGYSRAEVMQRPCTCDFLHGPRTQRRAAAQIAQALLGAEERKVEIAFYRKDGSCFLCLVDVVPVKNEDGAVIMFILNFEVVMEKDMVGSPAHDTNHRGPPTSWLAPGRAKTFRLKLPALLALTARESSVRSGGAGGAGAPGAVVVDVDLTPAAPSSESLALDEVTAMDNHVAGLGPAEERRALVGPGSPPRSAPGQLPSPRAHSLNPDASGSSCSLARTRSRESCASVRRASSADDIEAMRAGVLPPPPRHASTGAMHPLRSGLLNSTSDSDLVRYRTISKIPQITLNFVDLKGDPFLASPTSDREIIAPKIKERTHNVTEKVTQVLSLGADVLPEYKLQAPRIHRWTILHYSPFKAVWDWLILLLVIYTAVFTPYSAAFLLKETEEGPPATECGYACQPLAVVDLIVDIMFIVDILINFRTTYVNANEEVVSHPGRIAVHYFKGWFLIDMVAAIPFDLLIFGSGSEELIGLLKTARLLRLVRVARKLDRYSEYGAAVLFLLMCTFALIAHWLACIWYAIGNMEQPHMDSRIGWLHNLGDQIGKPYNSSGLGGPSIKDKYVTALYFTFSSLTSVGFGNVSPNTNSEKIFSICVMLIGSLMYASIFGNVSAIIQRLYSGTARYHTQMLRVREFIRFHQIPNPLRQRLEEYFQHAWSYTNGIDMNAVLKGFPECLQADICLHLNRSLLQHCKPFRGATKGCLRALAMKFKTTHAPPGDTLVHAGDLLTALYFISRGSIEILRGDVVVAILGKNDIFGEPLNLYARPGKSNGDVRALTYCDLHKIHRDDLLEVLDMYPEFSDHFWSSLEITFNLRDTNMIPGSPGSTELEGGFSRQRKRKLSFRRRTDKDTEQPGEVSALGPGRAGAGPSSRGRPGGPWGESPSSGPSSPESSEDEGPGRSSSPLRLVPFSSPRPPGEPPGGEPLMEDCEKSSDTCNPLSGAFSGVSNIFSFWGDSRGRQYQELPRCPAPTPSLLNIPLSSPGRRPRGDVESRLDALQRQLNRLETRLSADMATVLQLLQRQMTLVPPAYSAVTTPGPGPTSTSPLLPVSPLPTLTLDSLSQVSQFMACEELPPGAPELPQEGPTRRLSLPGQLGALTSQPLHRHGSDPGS", "experiment": "primary screen, population patch clamp on CHO cells stably expressing hERG", "units": {"hERG current change (%, negative = inhibition) at 1uM": "%"}, "values": [{"molecule": "Cc1ccc(C(=O)C2=C(O)C(=O)N(Cc3ccco3)C2c2ccc(N(C)C)cc2)o1", "note": "(stereo not shown)", "hERG current change (%, negative = inhibition) at 1uM": 6.35}, {"molecule": "COC(=O)C1=C(c2ccccc2)C[C@@H]2CC[C@H]1N2C(=O)NCc1ccccc1", "hERG current change (%, negative = inhibition) at 1uM": 16.9}, {"molecule": "CCn1c(-c2ccc(F)cc2)n[nH]c1=S", "hERG current change (%, negative = inhibition) at 1uM": 9.78}, {"molecule": "CCOc1ccccc1CNC(=O)C1CCCN(c2ncnc3c2nc2n3CCCCC2)C1", "note": "(stereo not shown)", "hERG current change (%, negative = inhibition) at 1uM": -3.85}, {"molecule": "Cc1ccc(N2C(=O)CCC2(C#N)c2ccccc2)cc1", "note": "(stereo not shown)", "hERG current change (%, negative = inhibition) at 1uM": 13.8}, {"molecule": "N#Cc1c(NC(=O)/C=C/c2ccco2)sc2c1CCCC2", "hERG current change (%, negative = inhibition) at 1uM": 2.63}, {"molecule": "COc1ccccc1-n1c(SCC(=O)Nc2cccc(C(=O)O)c2)nnc1-c1ccccc1C", "hERG current change (%, negative = inhibition) at 1uM": 9.95}, {"molecule": "CCOC(=O)c1cnc(SCc2nc(N)nc(Nc3ccc(C)cc3)n2)nc1N", "hERG current change (%, negative = inhibition) at 1uM": -1.84}, {"molecule": "CCOc1cc(C)nc(N2CCC(C(=O)Nc3ccccc3OCC)CC2)n1", "hERG current change (%, negative = inhibition) at 1uM": 11}, {"molecule": "C=CCN(C(=O)CSc1nc2[nH]ncc2c(=O)n1-c1ccccc1OC)c1ccccc1", "hERG current change (%, negative = inhibition) at 1uM": 3.01}, {"molecule": "COc1ccccc1C(C#N)c1cccc(Cl)n1", "note": "(stereo not shown)", "hERG current change (%, negative = inhibition) at 1uM": 18.6}, {"molecule": "CN(C(=S)NC(=O)c1ccc(F)cc1)C1CCCCC1", "hERG current change (%, negative = inhibition) at 1uM": 14.5}, {"molecule": "Cc1nn(Cc2ccccc2Cl)c(C)c1NC(=O)c1ccn(C)n1", "hERG current change (%, negative = inhibition) at 1uM": 13.7}, {"molecule": "Nc1ccc(-n2ccnc2)cc1", "hERG current change (%, negative = inhibition) at 1uM": 6.25}, {"molecule": "CCCC(=O)NC(=S)Nc1ccc(S(=O)(=O)N2CCc3ccccc32)cc1", "hERG current change (%, negative = inhibition) at 1uM": 14.7}, {"molecule": "O=C(COc1ccccc1[N+](=O)[O-])Nc1ccc2c(c1)CCC2", "hERG current change (%, negative = inhibition) at 1uM": 9.54}, {"molecule": "COc1c(O)ccc(/C=N/NC(=O)c2ccc3c(c2)OCCO3)c1[N+](=O)[O-]", "hERG current change (%, negative = inhibition) at 1uM": 11.4}, {"molecule": "CCCCCCC(=O)Oc1ccc(N2C(=O)CCC2=O)cc1", "hERG current change (%, negative = inhibition) at 1uM": 0.113}, {"molecule": "CCCOc1ccc(C(=O)Nc2ccc3c(c2)OCCO3)cc1", "hERG current change (%, negative = inhibition) at 1uM": 9.14}, {"molecule": "Cc1cc(C)c2sc(N(CCCN(C)C)C(=O)CN3C(=O)c4ccccc4C3=O)nc2c1.Cl", "hERG current change (%, negative = inhibition) at 1uM": 12.7}, {"molecule": "CCOc1ccc(N2C(=O)CC(SC(=NC)Nc3ccc4c(c3)OCO4)C2=O)cc1", "note": "(stereo not shown)", "hERG current change (%, negative = inhibition) at 1uM": 13.6}, {"molecule": "Brc1ccc(-c2nnc(SCCC3OCCCO3)o2)cc1", "hERG current change (%, negative = inhibition) at 1uM": 9.14}, {"molecule": "O=C(Nc1ccc(Br)cc1F)C1CCN(c2nnc(-n3cccc3)s2)CC1", "hERG current change (%, negative = inhibition) at 1uM": 7.44}, {"molecule": "Cc1cccc(C(=O)Nc2cccc(C(=O)N/N=C/c3cccc(C)n3)c2)c1", "hERG current change (%, negative = inhibition) at 1uM": 18.2}, {"molecule": "C=CCNc1oc(Cc2cccc3ccccc23)nc1C#N", "hERG current change (%, negative = inhibition) at 1uM": 5.92}, {"molecule": "S=C(NCC1CCCO1)c1ccc(Br)cc1", "note": "(stereo not shown)", "hERG current change (%, negative = inhibition) at 1uM": 11.9}, {"molecule": "Cc1csc(CNC(=O)c2cc(COc3c(C)cccc3C)on2)n1", "hERG current change (%, negative = inhibition) at 1uM": 13.5}, {"molecule": "COc1ccccc1NC(=O)Nc1ccnn1C1CCN(C(=O)c2ccccn2)CC1", "hERG current change (%, negative = inhibition) at 1uM": 10.4}, {"molecule": "OCCNc1cnc2ccccc2n1", "hERG current change (%, negative = inhibition) at 1uM": 9.55}, {"molecule": "Cn1c2c(c3ccccc31)CCSC2=O", "hERG current change (%, negative = inhibition) at 1uM": -2.86}, {"molecule": "Cc1ccccc1C(=O)NC1CCCN(Cc2ccccc2F)C1", "note": "(stereo not shown)", "hERG current change (%, negative = inhibition) at 1uM": 1.39}, {"molecule": "Cc1oc(C(C)(C)C)cc1C(=O)NCc1ccc2c(c1)OCO2", "hERG current change (%, negative = inhibition) at 1uM": 14.1}, {"molecule": "COc1ccc(Cl)cc1/C=C(\\C#N)C(N)=O", "hERG current change (%, negative = inhibition) at 1uM": 20}, {"molecule": "Cc1ccc(S(=O)(=O)N2CCOCC2)cc1NC(=O)COc1ccc(C(=O)c2ccccc2)cc1", "hERG current change (%, negative = inhibition) at 1uM": -15}, {"molecule": "Cc1ccc(-c2[nH]nc3c2C(C)C(C#N)=C(N)O3)cc1", "note": "(stereo not shown)", "hERG current change (%, negative = inhibition) at 1uM": 15.4}, {"molecule": "CC(=O)c1ccc(N2CCN(S(=O)(=O)c3c(C)[nH]c(=O)[nH]c3=O)CC2)cc1", "hERG current change (%, negative = inhibition) at 1uM": 9.72}, {"molecule": "CCCOc1ccc(C2=CSC3=NCCN23)cc1Cl", "hERG current change (%, negative = inhibition) at 1uM": -23.5}, {"molecule": "O=C(c1ccco1)N1N=C(c2cccs2)CC1c1ccc(F)cc1", "note": "(stereo not shown)", "hERG current change (%, negative = inhibition) at 1uM": 0.0766}, {"molecule": "O=C(/C=C/c1ccccc1)NC1CC2CCC1C2", "note": "(stereo not shown)", "hERG current change (%, negative = inhibition) at 1uM": 8.7}, {"molecule": "Cc1c(NC(=O)c2ccccc2F)c(=O)n(-c2ccccc2)n1C", "hERG current change (%, negative = inhibition) at 1uM": 12.2}, {"molecule": "COc1cccc(CC(=O)NN2C(=O)NC3(CCCCC3)C2=O)c1", "hERG current change (%, negative = inhibition) at 1uM": 10.3}, {"molecule": "Cc1ccccc1NS(=O)(=O)c1ccc(NC(=O)c2nc3ncccn3n2)cc1", "hERG current change (%, negative = inhibition) at 1uM": 7.01}, {"molecule": "COc1cccc(N2C(=O)C3CCCN3C2c2ccc(F)cc2)c1", "note": "(stereo not shown)", "hERG current change (%, negative = inhibition) at 1uM": 0.387}, {"molecule": "CC(=O)NC1(C(F)(F)F)C(=O)NC(C)=C1C#N", "note": "(stereo not shown)", "hERG current change (%, negative = inhibition) at 1uM": 6.12}, {"molecule": "CC(=O)C1=C(O)C(=O)N(C)C1c1ccccc1F", "note": "(stereo not shown)", "hERG current change (%, negative = inhibition) at 1uM": 19.4}, {"molecule": "Cc1ccccc1NC(=O)COC(=O)CCc1c[nH]c2ccccc12", "hERG current change (%, negative = inhibition) at 1uM": 4.35}, {"molecule": "O=[N+]([O-])c1ccc2nc(C(O)C(O)c3nc4ccc([N+](=O)[O-])cc4[nH]3)[nH]c2c1", "note": "(stereo not shown)", "hERG current change (%, negative = inhibition) at 1uM": 10.7}, {"molecule": "Nc1nnc(CC(=O)N/N=C/c2cccc(OCCOc3ccccc3)c2)s1", "hERG current change (%, negative = inhibition) at 1uM": 3.68}, {"molecule": "Cc1ccc(NS(=O)(=O)c2cccc(C(=O)N/N=C/c3c(C)nn(-c4ccccc4)c3N3CCCC3)c2)c(C)c1", "hERG current change (%, negative = inhibition) at 1uM": 7.65}, {"molecule": "CCn1c(O)c(C=C2N=c3ccccc3=N2)sc1=S", "hERG current change (%, negative = inhibition) at 1uM": 14.7}, {"molecule": "S=C(NCc1ccco1)N1CCN(c2nc(-c3ccc(Cl)cc3)cs2)CC1", "hERG current change (%, negative = inhibition) at 1uM": 2.76}, {"molecule": "COCCN1C(=O)N[C@@H](c2cccc(C(F)(F)F)c2)[C@@H](C(=O)OC)[C@H]1C", "hERG current change (%, negative = inhibition) at 1uM": 14.5}, {"molecule": "CCNC(=O)N1c2ccc(OCC)cc2C(C)=CC1(C)C", "hERG current change (%, negative = inhibition) at 1uM": 2.2}, {"molecule": "CCN(C(=O)c1ccc(Cl)cc1[N+](=O)[O-])c1ccccc1C", "hERG current change (%, negative = inhibition) at 1uM": 5.78}, {"molecule": "Cc1ccc(C)c(OCC(=O)Nc2ccc(N3CCOCC3)cc2)c1", "hERG current change (%, negative = inhibition) at 1uM": 2.85}, {"molecule": "CCOC(=O)Cc1nnc(NC(=O)CSc2nnc3c4ccccc4n(C(C)C)c3n2)s1", "hERG current change (%, negative = inhibition) at 1uM": -9.05}, {"molecule": "Cc1ccc(-c2nc(N)n(C(=O)c3cccnc3)n2)cc1", "hERG current change (%, negative = inhibition) at 1uM": 9.27}, {"molecule": "CC1=N/C(=C/c2ccc([N+](=O)[O-])cc2)C(=O)N1c1ccc(Cl)cc1Cl", "hERG current change (%, negative = inhibition) at 1uM": 16.3}]}]}
